Data: the supplement of paper PMC7826260
The other results are listed elsewhere or left out. The data describe in vitro nicking of single-stranded DNA by Rep domains (3 µM enzyme, 1 h, 37 °C); shown is the middle of each 90-letter strand. Numbers give uncut DNA relative to the enzyme-free pool, as log2; more negative means more cut, near 0 not cut, and no call is made. Shares of all reads are compared; uncut strands gain when others are lost, and binding without cutting may add a little.

What was measured:
Assay in all cases: uncleaved DNA left, log2 of reads against the no-enzyme library (log2 ratio); higher = less cleavage (more negative = more Rep cleavage of the k-mer); sequences stand for … in CTCGTCCG…ACCGGAGA
[1] = system: T1, Rep nickase domain of Muscovy duck circovirus
T1 sequence (protein, residues 1-111, tag omitted): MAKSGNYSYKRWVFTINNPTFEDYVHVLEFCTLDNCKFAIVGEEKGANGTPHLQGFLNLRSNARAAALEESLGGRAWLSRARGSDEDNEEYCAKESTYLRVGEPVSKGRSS
Protocol: (§1)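 A pool of 90-nt single-stranded DNAs with seven random bases just before the constant AC of the nick site (name = the seven bases) was cut by 3 µM recombinant His6-SUMO-tagged Rep nickase domain (300 nM DNA, 50 mM HEPES pH 8.0, 50 mM NaCl, 1 mM MnCl2, 1 h, 37 °C, three replicates). Uncut DNA was amplified and sequenced.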

[2] = system: T2, Rep nickase domain of banana bunchy top virus
T2 sequence (protein, residues 1-94, tag omitted): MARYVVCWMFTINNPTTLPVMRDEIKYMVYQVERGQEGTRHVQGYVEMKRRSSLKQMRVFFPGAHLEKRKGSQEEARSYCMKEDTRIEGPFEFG
Protocol: as §1

[3] = system: T3, Rep nickase domain of cabbage leaf curl virus
T3 sequence (protein, residues 1-116, tag omitted): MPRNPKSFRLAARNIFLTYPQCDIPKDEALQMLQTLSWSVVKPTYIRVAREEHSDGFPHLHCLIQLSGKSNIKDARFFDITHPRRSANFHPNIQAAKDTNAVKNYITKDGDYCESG
Protocol: as §1

[4] = system: T4, Rep nickase domain of chickpea chlorotic dwarf virus
T4 sequence (protein, residues 1-124, tag omitted): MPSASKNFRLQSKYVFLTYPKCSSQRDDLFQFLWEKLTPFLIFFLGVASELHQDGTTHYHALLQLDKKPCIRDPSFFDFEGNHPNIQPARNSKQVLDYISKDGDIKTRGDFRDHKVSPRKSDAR
Protocol: as §1

[5] = system: T5, Rep nickase domain of faba bean necrotic yellows virus
T5 sequence (protein, residues 1-98, tag omitted): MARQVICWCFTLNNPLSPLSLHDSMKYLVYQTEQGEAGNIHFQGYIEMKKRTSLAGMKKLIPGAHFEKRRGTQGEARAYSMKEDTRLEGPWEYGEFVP
Protocol: as §1

[6] = system: T6, Rep nickase domain of maize striate mosaic virus
T6 sequence (protein, residues 1-117, tag omitted): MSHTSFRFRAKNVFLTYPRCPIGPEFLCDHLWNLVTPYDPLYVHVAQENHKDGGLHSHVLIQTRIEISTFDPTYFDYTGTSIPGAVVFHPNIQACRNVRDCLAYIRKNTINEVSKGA
Protocol: as §1

[7] = system: T7, Rep nickase domain of porcine circovirus 2
T7 sequence (protein, residues 2-116, tag omitted): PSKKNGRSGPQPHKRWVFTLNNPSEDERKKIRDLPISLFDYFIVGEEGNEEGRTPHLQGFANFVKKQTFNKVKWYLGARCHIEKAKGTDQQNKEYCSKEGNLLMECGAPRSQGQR
Protocol: as §1

[8] = system: T8, Rep nickase domain of tomato golden mosaic virus
T8 sequence (protein, residues 1-124, tag omitted): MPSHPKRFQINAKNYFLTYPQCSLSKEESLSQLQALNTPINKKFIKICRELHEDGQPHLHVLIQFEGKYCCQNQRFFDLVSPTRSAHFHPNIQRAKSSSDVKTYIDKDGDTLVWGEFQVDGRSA
Protocol: as §1

[9] = system: T9, Rep nickase domain of tomato yellow leaf curl virus
T9 sequence (protein, residues 1-136, tag omitted): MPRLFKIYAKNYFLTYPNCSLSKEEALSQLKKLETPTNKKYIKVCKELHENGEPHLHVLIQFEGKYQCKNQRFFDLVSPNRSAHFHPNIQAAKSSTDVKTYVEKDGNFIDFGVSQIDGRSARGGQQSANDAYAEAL
Protocol: as §1

[10] = system: T10, Rep nickase domain of wheat dwarf virus
T10 sequence (protein, residues 1-137, tag omitted): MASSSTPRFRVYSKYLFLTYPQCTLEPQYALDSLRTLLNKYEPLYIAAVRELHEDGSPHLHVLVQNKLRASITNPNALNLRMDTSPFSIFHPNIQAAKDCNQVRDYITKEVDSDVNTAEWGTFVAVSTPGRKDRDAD
Protocol: as §1

Row | Sequence | uncleaved DNA left (log2) [1] | uncleaved DNA left (log2) [2] | uncleaved DNA left (log2) [3] | uncleaved DNA left (log2) [4] | uncleaved DNA left (log2) [5] | uncleaved DNA left (log2) [6] | uncleaved DNA left (log2) [7] | uncleaved DNA left (log2) [8] | uncleaved DNA left (log2) [9] | uncleaved DNA left (log2) [10]
1 | ATGCATT | 0.12 | 0.0104 | -0.0875 | -1.45 | 0.0612 | -0.417 | -0.756 | 0.0334 | 0.239 | 0.139
2 | GGTTGCG | -0.0102 | -0.0747 | 0.105 | 1.09 | 0.0633 | 1.4 | 0.1 | -0.0289 | -0.246 | -0.135
3 | GCAAGTA | 0.128 | 0.0604 | 0.133 | -0.316 | 0.186 | -0.157 | 0.083 | 0.132 | 0.129 | 0.0411
4 | AGGTCCA | -0.0227 | 0.0737 | 0.117 | 0.0176 | 0.0293 | 0.575 | -0.0632 | -0.0573 | 0.0704 | 0.154
5 | CTACAGA | -0.0246 | 0.0457 | -0.174 | -1.7 | 0.0566 | -0.719 | 0.138 | 0.04 | -0.00405 | 0.0299
6 | TTCAATG | 0.036 | -0.0395 | -0.387 | -0.569 | 0.0572 | -0.926 | 0.0467 | 0.127 | 0.0397 | -0.00838
7 | CATTACT | -4.15 | -3.98 | -2.57 | -3.48 | -2.69 | -1.69 | -3.91 | -2.23 | 0.0689 | -0.886
8 | ACATTTG | -0.0678 | -0.104 | -0.745 | -0.577 | -0.0216 | -1.13 | 0.168 | -0.117 | 0.00409 | -0.0804
9 | TCTACTG | 0.132 | -0.0707 | 0.0193 | 0.0997 | 0.0225 | 1.14 | -0.0015 | 0.036 | -0.0778 | -0.00215
10 | CTTGAGA | 0.0264 | 0.00637 | -0.34 | -0.223 | 0.0434 | -1.11 | 0.11 | -0.0961 | 0.129 | -0.106
11 | GTGGTCT | -0.0449 | -0.183 | 0.569 | 1.05 | -0.108 | 1.92 | 0.00605 | 0.0572 | -0.0746 | -0.0275
12 | ATGACAG | 0.093 | 0.0257 | -0.175 | 0.511 | 0.104 | -0.555 | 0.254 | 0.115 | 0.112 | 0.178
13 | TATATTT | -2.71 | -3.41 | -2.3 | -2.83 | -0.0392 | -0.369 | -3.42 | -0.157 | 0.0399 | -0.512
14 | TATATGG | 0.0405 | -0.00427 | 0.372 | 0.929 | 0.0276 | 0.783 | 0.153 | 0.0763 | -0.0962 | 0.0136
15 | AAGCTAT | -0.00811 | -0.0871 | 0.141 | 0.528 | -0.0122 | 1.29 | -2.22 | 0.0847 | -0.0484 | -0.0581
16 | GCCGGAG | 0.0584 | 0.0768 | -0.0239 | 0.371 | 0.0985 | -0.205 | 0.156 | 0.156 | 0.109 | 0.125

Row | Sequence | uncleaved DNA left (log2) [1] | uncleaved DNA left (log2) [2] | uncleaved DNA left (log2) [3] | uncleaved DNA left (log2) [4] | uncleaved DNA left (log2) [5] | uncleaved DNA left (log2) [6] | uncleaved DNA left (log2) [7] | uncleaved DNA left (log2) [8] | uncleaved DNA left (log2) [9] | uncleaved DNA left (log2) [10]
17 | GCGGTTG | 0.0756 | 0.0128 | 0.072 | 0.584 | 0.0512 | 1.61 | 0.192 | 0.0683 | 0.0083 | 0.0676
18 | TCATGTG | 0.00821 | -0.102 | -0.806 | -0.424 | -0.0266 | -0.965 | 0.163 | -0.052 | -0.0184 | -0.266
19 | AGAGCCG | -0.0103 | 0.0447 | -0.392 | -0.127 | -0.0825 | -0.79 | 0.116 | 0.0306 | -0.0487 | -0.0872
20 | ACATACC | -0.154 | 0.0423 | -0.154 | -0.811 | -0.00192 | -0.652 | -0.657 | -0.0453 | -0.158 | -0.0861
21 | TGCCCGT | 0.0592 | -0.0316 | 0.0692 | -0.249 | -0.0148 | -0.583 | -0.00535 | -0.0613 | 0.0284 | 0.0388
22 | AAATGAG | 0.143 | 0.0886 | -0.615 | 0.139 | 0.337 | -0.749 | 0.285 | 0.103 | 0.157 | 0.105
23 | CACGTGA | -0.034 | -0.098 | -0.235 | -0.636 | -0.15 | -0.829 | 0.00489 | -0.188 | -0.108 | -0.172
24 | TGACACG | 0.0599 | -0.0513 | -0.692 | -0.657 | -0.0176 | -1.01 | 0.215 | 0.0453 | 0.00896 | 0.00617
25 | ACGTGAC | -0.0203 | -0.0967 | -0.105 | 0.263 | -0.0646 | -0.269 | 0.0889 | 0.00833 | -0.185 | -0.0492
26 | TGTAATT | 0.0882 | 0.0494 | 0.174 | -1.48 | -0.0768 | 0.553 | -1.47 | -0.0204 | -0.007 | 0.0869
27 | TACTAGC | 0.0995 | -0.0669 | -0.598 | -0.821 | 0.0203 | -1.19 | -0.0367 | 0.0123 | 0.0965 | 0.0356
28 | TACGACC | 0.132 | 0.0787 | 0.0454 | 0.211 | 0.131 | -0.165 | 0.103 | 0.0519 | 0.0747 | 0.1
29 | TTTCTCC | 0.135 | -0.0836 | 0.11 | 0.188 | -0.00172 | 1.17 | 0.0183 | -0.162 | -0.00136 | -0.0277
30 | TGCGCTA | -0.134 | -0.0463 | -0.236 | -0.327 | -0.143 | -0.386 | -0.156 | -0.162 | -0.156 | -0.0445
31 | TCATTCT | -2.23 | -0.0469 | -1.94 | -2.9 | -0.0362 | -1.35 | -1.94 | -0.208 | 0.0104 | -0.142
